Assay results: PMC5392571, “A model for the conformational activation of the structurally quiescent metalloprotease ADAMTS13 by von willebrand factor” (The Journal of Biological Chemistry, 2017)

Columns and labels:
Conditions in all cases: both partners purified
[1] = target: WTΔTSP8 (ADAMTS13 residues 1–1075, 1131–1427) (human, UniProt Q76LX8 30-1427, ADAMTS13 residues 1–1075, 1131–1427, Construct is residues 1-1075 + 1131-1427; signal peptide (1-29) and propeptide (30-74) taken as removed on secretion from HEK293S (convention from UniProt features); C-terminal Myc/His6 tag left out;); experiment: ELISA; equilibrium plate binding assay; 50 nM ADAMTS13 or variant immobilised on microtiter wells; VWF D4-CK 0–500 nM for 2 h at 37 °C in PBS, 0.1% BSA, pH 7.4; detected with HRP-conjugated anti-VWF pAb; one-binding site fit; apparent KD
[2] = target: T1, WTΔCUB1-2 (ADAMTS13 residues 1–1191) (human, UniProt Q76LX8 30-1191); experiment: as above
T1 construct: signal peptide in the construct; ADAMTS13, human, residues 1-1191 (truncated after TSP8); Generated by inverse PCR from the full-length construct; also called ADAMTS13ΔCUB1-2; source: HEK293S cells, purified
T1 sequence (looked up): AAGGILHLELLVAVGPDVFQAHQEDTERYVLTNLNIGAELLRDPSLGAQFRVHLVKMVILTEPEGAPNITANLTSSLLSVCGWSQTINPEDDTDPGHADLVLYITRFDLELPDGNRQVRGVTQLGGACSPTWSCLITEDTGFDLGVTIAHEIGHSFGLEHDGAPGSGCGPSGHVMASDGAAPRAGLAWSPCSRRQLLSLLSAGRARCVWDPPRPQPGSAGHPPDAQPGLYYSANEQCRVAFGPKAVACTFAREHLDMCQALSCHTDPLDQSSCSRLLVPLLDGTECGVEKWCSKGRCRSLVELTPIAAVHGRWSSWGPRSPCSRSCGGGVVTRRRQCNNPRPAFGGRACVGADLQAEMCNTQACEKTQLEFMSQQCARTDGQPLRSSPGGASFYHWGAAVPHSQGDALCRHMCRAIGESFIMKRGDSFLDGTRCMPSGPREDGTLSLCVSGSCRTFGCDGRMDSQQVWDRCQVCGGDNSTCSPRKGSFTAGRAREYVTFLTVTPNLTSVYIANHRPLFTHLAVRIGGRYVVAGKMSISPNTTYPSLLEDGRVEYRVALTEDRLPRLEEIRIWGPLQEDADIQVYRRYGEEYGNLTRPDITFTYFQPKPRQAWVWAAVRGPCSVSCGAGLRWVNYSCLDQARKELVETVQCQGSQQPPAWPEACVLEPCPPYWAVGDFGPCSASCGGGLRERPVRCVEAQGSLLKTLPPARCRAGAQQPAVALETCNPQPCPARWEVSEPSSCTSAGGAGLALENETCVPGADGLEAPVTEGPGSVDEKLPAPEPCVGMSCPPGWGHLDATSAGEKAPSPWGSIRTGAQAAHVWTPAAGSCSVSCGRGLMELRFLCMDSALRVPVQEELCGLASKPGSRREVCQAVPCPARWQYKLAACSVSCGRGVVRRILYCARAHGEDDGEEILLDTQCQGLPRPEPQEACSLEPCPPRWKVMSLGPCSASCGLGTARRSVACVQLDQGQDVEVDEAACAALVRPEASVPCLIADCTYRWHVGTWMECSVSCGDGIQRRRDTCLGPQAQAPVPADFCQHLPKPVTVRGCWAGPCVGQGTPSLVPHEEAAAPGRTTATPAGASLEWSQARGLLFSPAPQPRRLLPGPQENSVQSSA

[3] = target: T2, Recombinant human ADAMTS13 (wild type, full length) (human, UniProt Q76LX8 75-1427); experiment: as above
T2 construct: ADAMTS13, human, full-length construct (last residue 1427 by the printed limits of the fragments); signal peptide in the construct; also called WT ADAMTS13; source: HEK293S cells, purified
T2 sequence (looked up): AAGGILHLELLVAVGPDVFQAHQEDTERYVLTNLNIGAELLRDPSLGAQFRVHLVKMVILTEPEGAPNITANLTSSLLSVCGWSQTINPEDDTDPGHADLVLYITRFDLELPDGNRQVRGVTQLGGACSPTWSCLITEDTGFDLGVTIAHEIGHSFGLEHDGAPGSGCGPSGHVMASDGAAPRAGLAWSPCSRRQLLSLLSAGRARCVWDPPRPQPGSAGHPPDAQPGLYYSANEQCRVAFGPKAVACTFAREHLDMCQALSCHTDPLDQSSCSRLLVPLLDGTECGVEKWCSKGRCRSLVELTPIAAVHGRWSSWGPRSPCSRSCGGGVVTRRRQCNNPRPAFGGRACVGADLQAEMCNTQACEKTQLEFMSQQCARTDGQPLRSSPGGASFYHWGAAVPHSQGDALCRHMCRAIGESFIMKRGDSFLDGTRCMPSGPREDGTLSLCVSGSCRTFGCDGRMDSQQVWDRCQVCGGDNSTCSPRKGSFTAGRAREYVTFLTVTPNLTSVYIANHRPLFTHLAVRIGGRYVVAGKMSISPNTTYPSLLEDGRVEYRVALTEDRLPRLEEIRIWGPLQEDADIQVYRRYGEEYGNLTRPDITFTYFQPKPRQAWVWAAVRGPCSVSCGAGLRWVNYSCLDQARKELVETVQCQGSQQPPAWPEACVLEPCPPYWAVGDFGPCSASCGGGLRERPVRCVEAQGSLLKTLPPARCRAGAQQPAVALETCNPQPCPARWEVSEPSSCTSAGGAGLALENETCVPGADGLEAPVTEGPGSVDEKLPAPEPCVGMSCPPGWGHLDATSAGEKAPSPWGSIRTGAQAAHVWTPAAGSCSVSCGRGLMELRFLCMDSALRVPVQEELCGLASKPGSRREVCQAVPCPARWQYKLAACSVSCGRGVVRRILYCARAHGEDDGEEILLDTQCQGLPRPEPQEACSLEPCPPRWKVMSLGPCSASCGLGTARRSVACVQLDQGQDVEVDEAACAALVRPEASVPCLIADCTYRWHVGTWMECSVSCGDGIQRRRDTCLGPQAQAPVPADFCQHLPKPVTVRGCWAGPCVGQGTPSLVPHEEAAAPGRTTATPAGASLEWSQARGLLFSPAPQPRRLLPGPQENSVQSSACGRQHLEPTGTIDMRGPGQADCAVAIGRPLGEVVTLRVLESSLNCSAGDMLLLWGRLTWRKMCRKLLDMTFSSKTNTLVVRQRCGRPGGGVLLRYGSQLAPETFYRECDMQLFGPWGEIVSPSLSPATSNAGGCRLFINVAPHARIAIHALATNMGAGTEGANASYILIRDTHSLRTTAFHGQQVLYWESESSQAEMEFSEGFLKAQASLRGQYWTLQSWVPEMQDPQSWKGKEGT

[4] = target: T3, WTΔCUB2 (ADAMTS13 residues 1–1298) (human, UniProt Q76LX8 30-1298); experiment: as above
T3 construct: signal peptide in the construct; ADAMTS13, human, residues 1-1298 (truncated after CUB1); Generated by inverse PCR from the full-length construct; also called ADAMTS13ΔCUB2; source: HEK293S cells, purified
T3 sequence (looked up): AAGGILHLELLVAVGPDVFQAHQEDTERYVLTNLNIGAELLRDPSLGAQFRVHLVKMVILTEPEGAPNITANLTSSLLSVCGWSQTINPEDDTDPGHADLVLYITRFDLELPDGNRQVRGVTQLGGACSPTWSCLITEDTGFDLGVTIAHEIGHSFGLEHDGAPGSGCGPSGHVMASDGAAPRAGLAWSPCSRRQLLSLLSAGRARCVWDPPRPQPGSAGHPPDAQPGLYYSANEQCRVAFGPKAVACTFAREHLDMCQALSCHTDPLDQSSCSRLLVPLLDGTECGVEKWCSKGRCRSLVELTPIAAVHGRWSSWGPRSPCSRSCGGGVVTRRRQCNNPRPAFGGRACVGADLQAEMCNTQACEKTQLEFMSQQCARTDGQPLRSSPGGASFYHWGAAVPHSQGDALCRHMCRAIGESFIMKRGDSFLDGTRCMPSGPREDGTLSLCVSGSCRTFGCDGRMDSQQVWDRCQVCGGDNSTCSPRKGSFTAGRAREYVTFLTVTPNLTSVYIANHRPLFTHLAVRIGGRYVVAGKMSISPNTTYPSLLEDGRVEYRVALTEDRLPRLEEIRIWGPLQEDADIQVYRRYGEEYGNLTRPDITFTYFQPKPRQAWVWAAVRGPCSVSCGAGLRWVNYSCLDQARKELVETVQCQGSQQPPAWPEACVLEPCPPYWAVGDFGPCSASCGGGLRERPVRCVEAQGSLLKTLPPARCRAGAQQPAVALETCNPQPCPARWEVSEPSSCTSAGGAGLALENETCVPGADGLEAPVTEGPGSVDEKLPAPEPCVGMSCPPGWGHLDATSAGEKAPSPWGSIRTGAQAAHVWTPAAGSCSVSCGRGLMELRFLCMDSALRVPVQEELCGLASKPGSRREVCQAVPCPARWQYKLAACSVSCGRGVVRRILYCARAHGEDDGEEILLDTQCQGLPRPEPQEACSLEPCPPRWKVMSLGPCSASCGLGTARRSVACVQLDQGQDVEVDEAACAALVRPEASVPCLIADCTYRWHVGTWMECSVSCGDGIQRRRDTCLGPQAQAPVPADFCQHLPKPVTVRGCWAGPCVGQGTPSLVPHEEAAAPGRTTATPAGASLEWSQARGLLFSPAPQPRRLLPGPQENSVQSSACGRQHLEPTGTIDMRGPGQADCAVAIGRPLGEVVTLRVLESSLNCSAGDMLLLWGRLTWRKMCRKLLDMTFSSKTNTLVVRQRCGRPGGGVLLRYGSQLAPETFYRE

[5] = target: T1, WTΔCUB1-2 (ADAMTS13 residues 1–1191); experiment: SPR; BIAcore T100, CM5 chip; ADAMTS13, its truncation variants or CUB fragments immobilised, VWF D4-CK as analyte; 10 mM HEPES, 150 mM NaCl, pH 7.4, 0.0034 mM EDTA, 0.005% Tween 20; global analysis
[6] = target: T2, Recombinant human ADAMTS13 (wild type, …); experiment: as above
[7] = target: T3, WTΔCUB2 (ADAMTS13 residues 1–1298); experiment: as above

Kd [1]: ~1000 nM | Kd [2]: 184 nM | Kd [3]: 146 nM | Kd [4]: 167 nM | Kd [5]: 131 nM | Kd [6]: 114 nM | Kd [7]: 132 nM
B1: dimeric VWF D4-CK domain fragment (VWF […]) (domain or fragment)
chain: not shown
notes: von Willebrand factor, […] (D4 to CK domains); source: HEK293S, transiently expressed, purified by FPLC
